Data: the supplement of paper PMC4967469

Legend:
Experiment in all cases: Viability of human cancer cell lines after 72 h of drug (GDSC screen)
LFM-A13 = compound: C/C(O)=C(\C#N)C(=O)Nc1cc(Br)ccc1Br [LFM-A13]; conditions: top dose 16 µM; top dose inferred
Experimental: (§1)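 Human cancer cell lines in 384-well plates, medium with 10% serum, drug for 72 h over a 256-fold dose range (nine 2-fold or five 4-fold steps up to the top dose). Adherent lines were fixed and stained with the nucleic acid dye Syto60, suspension lines read with resazurin; signal relative to control wells, capped at 0 and 100%. One two-parameter sigmoid per drug and line, fitted in a mixed model over all curves with the slope shared within a line.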

TW-37 = compound: CC(C)c1ccccc1Cc1cc(C(=O)Nc2ccc(S(=O)(=O)c3ccccc3C(C)(C)C)cc2)c(O)c(O)c1O [TW-37]; conditions: top dose 5 µM
Experimental: as §1

Nilotinib = compound: Cc1cn(-c2cc(NC(=O)c3ccc(C)c(Nc4nccc(-c5cccnc5)n4)c3)cc(C(F)(F)F)c2)cn1 [Nilotinib]; conditions: top dose 2 µM
Experimental: as §1

AUY922 = compound: CCNC(=O)c1noc(-c2cc(C(C)C)c(O)cc2O)c1-c1ccc(CN2CCOCC2)cc1 [AUY922]; conditions: top dose 0.256 µM; top dose inferred
Experimental: as §1

Gemcitabine = compound: Nc1ccn([C@@H]2O[C@H](CO)[C@@H](O)C2(F)F)c(=O)n1 [Gemcitabine]; conditions: top dose 1.024 µM
Experimental: as §1

Bicalutamide = compound: CC(O)(CS(=O)(=O)c1ccc(F)cc1)C(=O)Nc1ccc(C#N)c(C(F)(F)F)c1 [Bicalutamide]; conditions: top dose inferred
Experimental: as §1

MP470 = compound: S=C(NCc1ccc2c(c1)OCO2)N1CCN(c2ncnc3c2oc2ccccc23)CC1 [MP470]; conditions: top dose 20 µM; top dose inferred
Experimental: as §1

T0901317 = compound: O=S(=O)(c1ccccc1)N(CC(F)(F)F)c1ccc(C(O)(C(F)(F)F)C(F)(F)F)cc1 [T0901317]; conditions: top dose 10.24 µM; top dose inferred
Experimental: as §1

KIN001-270 = compound: Cc1ccc(Nc2cc(-c3cccc(N4C(=O)c5ccccc5C4=O)c3)ncn2)cc1NS(C)(=O)=O [KIN001-270]; conditions: top dose 20 µM; top dose inferred
Experimental: as §1

[1] = top dose 1.024 µM, screen: GDSC drug entry 150
[2] = top dose 10 µM, screen: GDSC drug entry 1502

| Cell Line | AUC (LFM-A13) | IC50 (LFM-A13) [nM] | AUC (TW-37) | IC50 (TW-37) [nM] | AUC (Nilotinib) | IC50 (Nilotinib) [nM] | AUC (AUY922) | IC50 (AUY922) [nM] | AUC (Gemcitabine) | IC50 (Gemcitabine) [nM] | AUC (Bicalutamide; [1]) | IC50 (Bicalutamide; [1]) [nM] | AUC (Bicalutamide; [2]) | IC50 (Bicalutamide; [2]) [nM] | AUC (MP470) | IC50 (MP470) [nM] | AUC (T0901317) | IC50 (T0901317) [nM] | AUC (KIN001-270) | IC50 (KIN001-270) [nM] |
| --- | --- | --- | --- | --- | --- | --- | --- | --- | --- | --- | --- | --- | --- | --- | --- | --- | --- | --- | --- | --- |
| STS-0421 (soft tissue, adherent) | 0.87 | > 16000 | 0.575 | 519 | 0.983 | > 2000 | 0.59 | 29.5 | 0.813 | 670 | 0.979 | > 1020 | 0.967 | > 10000 | – | – | – | – | – | – |
| MDA-MB-415 (breast, adherent) | 0.927 | > 16000 | – | – | 0.983 | > 2000 | 0.822 | 221 | 0.94 | > 1020 | 0.982 | > 1020 | 0.942 | > 10000 | 0.608 | 2740 | 0.969 | > 10200 | 0.979 | > 20000 |
| H290 (mesothelioma, adherent) | 0.962 | > 16000 | 0.466 | 255 | 0.989 | > 2000 | 0.561 | 23.1 | 0.199 | 9.07 | 0.983 | > 1020 | 0.987 | > 10000 | 0.854 | 13700 | 0.989 | > 10200 | – | – |
| OE21 (oesophagus, adherent) | 0.942 | > 16000 | 0.609 | 696 | 0.918 | > 2000 | – | – | 0.533 | 81.4 | 0.977 | > 1020 | 0.892 | > 10000 | 0.978 | > 20000 | 0.978 | > 10200 | 0.972 | > 20000 |
| DU-145 (prostate, adherent) | 0.971 | > 16000 | 0.439 | 209 | 0.966 | > 2000 | – | – | 0.15 | 4.47 | – | – | – | – | 0.957 | > 20000 | 0.982 | > 10200 | 0.952 | > 20000 |
| HCC1937 (breast, adherent) | 0.978 | > 16000 | 0.706 | 1310 | 0.95 | > 2000 | 0.655 | 46.1 | – | – | 0.985 | > 1020 | 0.983 | > 10000 | 0.956 | > 20000 | 0.984 | > 10200 | 0.96 | > 20000 |
| AsPC-1 (pancreas, adherent) | 0.961 | > 16000 | 0.648 | 1080 | 0.964 | > 2000 | 0.947 | > 256 | – | – | 0.974 | > 1020 | 0.928 | > 10000 | 0.973 | > 20000 | 0.964 | > 10200 | 0.974 | > 20000 |
| PFSK-1 (medulloblastoma, adherent) | 0.982 | > 16000 | – | – | 0.938 | > 2000 | 0.771 | 104 | 0.826 | 671 | 0.985 | > 1020 | – | – | 0.905 | > 20000 | 0.977 | > 10200 | 0.959 | > 20000 |
| JHU-029 (head and neck, adherent) | 0.931 | > 16000 | 0.55 | 442 | 0.974 | > 2000 | 0.403 | 8.16 | 0.443 | 43.1 | 0.98 | > 1020 | 0.952 | > 10000 | – | – | – | – | – | – |
| DoTc2-4510 (cervix, adherent) | 0.957 | > 16000 | 0.715 | 1220 | 0.975 | > 2000 | – | – | 0.13 | 4.73 | 0.988 | > 1020 | – | – | 0.948 | > 20000 | 0.986 | > 10200 | 0.973 | > 20000 |
| LN-405 (glioma, adherent) | 0.974 | > 16000 | – | – | 0.984 | > 2000 | 0.894 | > 256 | 0.944 | > 1020 | 0.983 | > 1020 | 0.955 | > 10000 | 0.968 | > 20000 | 0.984 | > 10200 | 0.977 | > 20000 |
| NCI-H441 (lung adenocarcinoma, adherent) | 0.941 | > 16000 | 0.728 | 1850 | 0.981 | > 2000 | 0.717 | 85.8 | – | – | 0.977 | > 1020 | – | – | 0.764 | 10300 | 0.965 | > 10200 | 0.973 | > 20000 |
| HT-29 (large intestine, adherent) | 0.984 | > 16000 | 0.647 | 796 | 0.984 | > 2000 | 0.67 | 47.4 | – | – | 0.988 | > 1020 | 0.985 | > 10000 | 0.948 | > 20000 | 0.984 | > 10200 | 0.982 | > 20000 |
| COLO-783 (melanoma, adherent) | 0.99 | > 16000 | – | – | 0.991 | > 2000 | 0.859 | 199 | 0.991 | > 1020 | 0.991 | > 1020 | 0.987 | > 10000 | 0.953 | > 20000 | 0.986 | > 10200 | 0.989 | > 20000 |
| HeLa (cervix, adherent) | 0.965 | > 16000 | 0.5 | 313 | 0.976 | > 2000 | 0.69 | 53 | 0.663 | 178 | – | – | – | – | 0.71 | 4740 | – | – | 0.975 | > 20000 |
| HOS (osteosarcoma, adherent) | 0.978 | > 16000 | 0.283 | 86.1 | 0.937 | > 2000 | 0.335 | 6.06 | – | – | 0.992 | > 1020 | 0.972 | > 10000 | 0.992 | > 20000 | 0.991 | > 10200 | 0.992 | > 20000 |

By IC50 is meant the dose at which the fit gives 50% viability; where the fit passes the top or lowest dose, that dose stands as a limit. AUC is the area under the same curve over the 256-fold range up to the top dose, as a fraction; it is 1 without any effect and falls as sensitivity rises. For some assays here: An inferred top dose comes from the curve model; the source does not state it. For some assays here: Drugs with an entry number were screened twice under separate entries, and the two screens often disagree.
